# In all, about 52,000 compounds went through this assay and about 1,700 (3.3%) were called active. No stated cut-off is given here; in the data, active means survival mostly below about 52% (no sharp cut-off); inactive means mostly above about 56%. The list shows a part of the results.
# System: Wild type
# Test: S. aureus survival, RN4220 and DeltatarO strains – OD600, teichoic acid synthesis inhibitors, primary screen (AID 463173)
# Conditions: S. aureus RN4220 wild type/DeltatarO growth, OD600, 18 h, active compounds read low, screened at 18.75 µg/mL (by protocol)
row,SMILES,survival
1,Cc1ccc(OCc2nc3ccccc3n2CCOc2ccc(Cl)cc2)cc1,active: 26%
2,COCCCNC(=O)CSc1nc2cc(OC)c(OC)cc2c2nc(-c3ccccc3)nn12,inactive: 71%
3,CC(C)c1ccc(NC(=O)Cn2c(=O)n(CCc3ccccc3)c(=O)c3ccccc32)cc1,inactive: 97%
4,CCc1cccc(CC)c1NC(=O)CN1C(=O)C(=O)c2ccccc21,inactive: 88%
5,Cc1ccc(Nc2nnc(-c3ccc(C)c(S(=O)(=O)NCc4nc5ccccc5[nH]4)c3)c3ccccc23)cc1,inactive: 90%
6,COc1ccc2[nH]c(=O)c(CN(Cc3cccs3)C(=O)c3cccs3)cc2c1,inactive: 122%
7,Cc1ccc(-c2nc(SCC(=O)NCc3ccco3)c3c(=O)n(C)c(=O)n(C)c3n2)cc1,inactive: 77%
8,Cc1ccc(-c2nnc(Nc3cccc(O)c3)c3ccccc23)cc1S(=O)(=O)N1CCN(C)CC1,inactive: 70%
9,Cc1ccccc1OCC(O)Cn1c(=N)n(CCN2CCCCC2)c2ccccc21 (centres undefined),inactive: 76%
10,Cc1ccc(C(=O)Nc2cccc(-c3nc4ccccc4o3)c2)c(Cl)c1,inactive: 70%
11,CCc1ccc(NC(=O)C(CC)n2c(=O)c(C(F)(F)F)nc3ccccc32)cc1 (centres undefined),inactive: 81%
12,Cc1ccc(NC(=O)CC(C)S(=O)(=O)c2ccc3c(c2)NC(=O)CO3)cc1Cl (centres undefined),inactive: 51%
13,Cc1nc2nc(SCC(=O)NCc3ccccc3Cl)nn2c(C)c1Cc1ccccc1,inactive: 68%
14,COc1cc(NS(=O)(=O)c2ccc3[nH]c4c(c3c2)CCCCCC4)cc(OC)c1,inactive: 57%
15,CCOC(=O)Cn1c(=O)c2c(nc3n2CCN3c2ccc(CC)cc2)n(C)c1=O,inactive: 88%
16,COc1cc(Cl)c(C)cc1Nc1ncnc2c1nc1n2CCCC1,inactive: 100%
17,CCc1nc(-c2cc(S(=O)(=O)N3CCN(c4ccccc4OC)CC3)ccc2OC)no1,inactive: 69%
18,Cc1ccc(-c2nnc(Nc3ccc(O)cc3)c3ccccc23)cc1S(=O)(=O)N1CCOCC1,inactive: 82%
19,COc1ccc(-c2cc(C(=O)Nc3c(C)nn(Cc4ccc(C)cc4)c3C)no2)cc1OC,inactive: 72%
20,COc1ccc(Cl)cc1NC(=O)CN1C(=O)COc2ccc(S(=O)(=O)NC3CCCC3)cc21,inactive: 88%
21,Cc1ccc(Nc2nn3c(=O)c4cc5c(cc4nc3s2)OCO5)cc1Cl,inactive: 62%
22,CCOC(=O)c1cc(-c2ccccc2)n(-c2cccc(C(=O)Nc3ccc(OCC)cc3)c2)c1C,active: 10%

row,SMILES,survival
1,CC(=O)N1CCCc2cc(S(=O)(=O)N3CCC(C(=O)NCc4cccc(C)c4)CC3)ccc21,inactive: 83%
2,COc1cccc(Cn2c(=O)n(Cc3ccco3)c(=O)c3oc4ccccc4c32)c1,inactive: 81%
3,CCCCN(CC)CCNC(=O)Cn1cc2c(n1)-c1c(oc(C(=O)N3CCCC3)c1C)CC2,inactive: 90%
4,CN(C(=O)CSc1cn(CC(=O)N2CCOCC2)c2ccccc12)c1ccccc1,inactive: 92%
5,CCCOc1cccc(C(=O)N(Cc2ccc(C)o2)C2CCS(=O)(=O)C2)c1 (centres undefined),inactive: 88%
6,CCOC(=O)c1cc2c(=O)n3ccccc3nc2n(CC(C)C)c1=NC(=O)c1c(-c2c(F)cccc2Cl)noc1C,inactive: 147%
7,CCCN(C(=O)c1noc2c1COc1ccc(C)cc1-2)c1ccc(Cl)c(Cl)c1,inactive: 117%
8,COc1cc(NC(=O)CC2C(=O)N(c3cccc(C)c3)C(=O)N2Cc2ccc(F)cc2)cc(OC)c1 (centres undefined),inactive: 83%
9,COCCNc1sc(S(=O)(=O)c2ccc(C)cc2)nc1S(=O)(=O)c1ccc(C)cc1,inactive: 118%
10,CC(=O)Nc1ccc(NC(=O)CSc2nccn2C)cc1,inactive: 67%
11,CC(C)NC(=O)CSc1nc2ccccc2[nH]1,inactive: 108%
12,C=CCc1c(C)[nH]c(=S)[nH]c1=S,inactive: 105%
13,COC(=O)c1ccccc1NC(=O)c1c(NC(=O)c2ccco2)sc2c1CCC(C(C)(C)C)C2 (centres undefined),inactive: 110%
14,COc1ccccc1OCC(=O)NCC(c1ccc(Cl)cc1)N1CCCCC1 (centres undefined),inactive: 75%
15,COc1cccc(CNC(=O)C(=O)Nc2c3c(nn2-c2ccccc2)CSC3)c1,inactive: 66%
16,CCN(C(=O)C1CCN(S(=O)(=O)c2ccc3c(c2)CCCN3C(C)=O)CC1)c1cccc(C)c1,inactive: 78%
17,Cc1ccc2oc3c(c(=O)c2c1)C(c1ccc(F)cc1)N(Cc1ccc2c(c1)OCO2)C3=O (centres undefined),inactive: 75%
18,CC(=O)c1cccc(NC(=O)c2sc(-n3nc(C)c(Cc4ccc5c(c4)OCO5)c3C)nc2C)c1,inactive: 94%
19,CCOc1ccc(-c2cccc(NS(=O)(=O)c3c(C)cc(C)cc3C)c2)nn1,inactive: 82%
20,COc1ccccc1CCNC(=O)C(=O)NCC(c1ccc2c(c1)OCO2)N1CCOCC1 (centres undefined),inactive: 82%
21,CCOC(=O)c1c(NC(C)=O)c2c3c(sc2n1Cc1nc(-c2cccc(Cl)c2)oc1C)CCCC3,inactive: 79%
22,Cc1c(Cl)cccc1NC(=O)Cn1c(CCC(=O)O)ccc1-c1cccs1,inactive: 82%

# Source: PubChem BioAssay AID463173 (ICCB-Longwood Screening Facility, Harvard Medical School, 2010)
